Data from the supplement of paper PMC4967469.

Experiments:
Experiment in all cases: Viability of human cancer cell lines after 72 h of drug (GDSC screen)
[1] = compound: COc1cc(Nc2c(C#N)cnc3cc(OCCCN4CCN(C)CC4)c(OC)cc23)c(Cl)cc1Cl [Bosutinib]; conditions: top dose 2 µM
Procedure: (§1)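 Human cancer cell lines in 384-well plates, medium with 10% serum, drug for 72 h over a 256-fold dose range (nine 2-fold or five 4-fold steps up to the top dose). Adherent lines were fixed and stained with the nucleic acid dye Syto60, suspension lines read with resazurin; signal relative to control wells, capped at 0 and 100%. One two-parameter sigmoid per drug and line, fitted in a mixed model over all curves with the slope shared within a line.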

[2] = compound: CO[C@@]12[C@H](COC(N)=O)C3=C(C(=O)C(C)=C(N)C3=O)N1C[C@@H]1N[C@@H]12 [Mitomycin C]; conditions: top dose 16 µM
Procedure: as §1

[3] = compound: O=C(O)CNC(=O)c1c(O)c2ccccc2n(Cc2ccccc2)c1=O [IOX2]; conditions: top dose 0.1 µM; top dose inferred
Procedure: as §1

[4] = compound: CO[C@@H]1[C@H](N(C)C(=O)c2ccccc2)C[C@H]2O[C@]1(C)n1c3ccccc3c3c4c(c5c6ccccc6n2c5c31)C(=O)NC4 [Midostaurin]; conditions: top dose 0.512 µM; top dose inferred
Procedure: as §1

[5] = compound: Cc1ccc(C(=O)Nc2cccc(C(F)(F)F)c2)cc1Nc1nc(-c2cccnc2)nc2c1cnn2C [NVP-BHG712]; conditions: top dose 10.24 µM; top dose inferred
Procedure: as §1

Cell Line | AUC [1] | IC50 [1] | AUC [2] | IC50 [2] | AUC [3] | IC50 [3] | AUC [4] | IC50 [4] | AUC [5] | IC50 [5]
IGR-1 (melanoma, adherent) | 0.99 | > 2000 nM | 0.301 | 299 nM | 0.934 | > 100 nM | 0.874 | 394 nM | 0.818 | 4.9 µM
IGR-37 (melanoma, adherent) | 0.837 | 1170 nM | 0.153 | 97.2 nM | 0.986 | > 100 nM | 0.797 | 217 nM | 0.758 | 3.27 µM
IHH-4 (thyroid, semi-adherent) | 0.831 | 935 nM | 0.054 | < 62.5 nM | 0.976 | > 100 nM | 0.767 | 155 nM | 0.935 | > 10.2 µM
IPC-298 (melanoma, adherent) | 0.768 | 738 nM | 0.551 | 1370 nM | 0.986 | > 100 nM | 0.957 | > 512 nM | 0.788 | 4.4 µM
JEG-3 (urogenital system, adherent) | 0.965 | > 2000 nM | 0.585 | 1670 nM | 0.99 | > 100 nM | 0.975 | > 512 nM | 0.991 | > 10.2 µM
JHH-1 (liver, adherent) | 0.812 | 1190 nM | 0.426 | 614 nM | 0.973 | > 100 nM | 0.87 | > 512 nM | 0.842 | 8.11 µM
JHH-2 (liver, adherent) | 0.979 | > 2000 nM | 0.748 | 5480 nM | 0.983 | > 100 nM | 0.949 | > 512 nM | 0.926 | > 10.2 µM
JHH-4 (liver, adherent) | 0.938 | > 2000 nM | 0.417 | 591 nM | 0.986 | > 100 nM | 0.731 | 145 nM | 0.736 | 3.01 µM
JHH-6 (liver, adherent) | 0.957 | > 2000 nM | 0.584 | 1700 nM | 0.986 | > 100 nM | 0.934 | > 512 nM | 0.957 | > 10.2 µM
JHH-7 (liver, adherent) | 0.981 | > 2000 nM | 0.24 | 188 nM | 0.988 | > 100 nM | 0.851 | 355 nM | 0.972 | > 10.2 µM
JHU-011 (head and neck, adherent) | 0.651 | 326 nM | 0.048 | < 62.5 nM | 0.984 | > 100 nM | 0.8 | 243 nM | 0.946 | > 10.2 µM
JHU-022 (head and neck, adherent) | 0.653 | 374 nM | 0.532 | 1250 nM | 0.976 | > 100 nM | 0.875 | > 512 nM | 0.982 | > 10.2 µM
JIMT-1 (breast, adherent) | 0.854 | 1770 nM | 0.496 | 977 nM | 0.976 | > 100 nM | 0.936 | > 512 nM | 0.924 | > 10.2 µM
K2 (melanoma, adherent) | 0.834 | 1890 nM | 0.446 | 682 nM | 0.955 | > 100 nM | 0.978 | > 512 nM | 0.849 | > 10.2 µM
KARPAS-620 (haematopoietic neoplasm, suspension) | 0.99 | > 2000 nM | 0.623 | 2070 nM | 0.988 | > 100 nM | 0.869 | 363 nM | 0.43 | 0.424 µM
KLE (endometrium, adherent) | 0.969 | > 2000 nM | 0.649 | 3250 nM | 0.964 | > 100 nM | 0.918 | > 512 nM | 0.859 | > 10.2 µM
KMH-2 (thyroid, adherent) | 0.973 | > 2000 nM | 0.448 | 732 nM | 0.989 | > 100 nM | 0.864 | 370 nM | 0.99 | > 10.2 µM
KMRC-1 (kidney, adherent) | 0.984 | > 2000 nM | 0.775 | 6730 nM | 0.986 | > 100 nM | 0.854 | 445 nM | 0.957 | > 10.2 µM
KMRC-20 (kidney, adherent) | 0.948 | > 2000 nM | 0.402 | 536 nM | 0.986 | > 100 nM | 0.632 | 74.5 nM | 0.979 | > 10.2 µM
KON (head and neck, adherent) | 0.73 | 556 nM | 0.081 | < 62.5 nM | 0.967 | > 100 nM | 0.805 | 252 nM | 0.987 | > 10.2 µM
KS-1 (glioma, adherent) | 0.931 | > 2000 nM | 0.291 | 220 nM | 0.977 | > 100 nM | 0.702 | 138 nM | 0.875 | > 10.2 µM
KU-19-19 (bladder, adherent) | 0.937 | > 2000 nM | 0.708 | 3870 nM | 0.983 | > 100 nM | 0.986 | > 512 nM | 0.843 | 7.27 µM
KURAMOCHI (ovary, adherent) | 0.977 | > 2000 nM | 0.387 | 463 nM | 0.892 | > 100 nM | 0.842 | 448 nM | 0.897 | > 10.2 µM
KYM-1 (rhabdomyosarcoma, adherent) | 0.99 | > 2000 nM | 0.087 | < 62.5 nM | 0.988 | > 100 nM | 0.961 | > 512 nM | 0.991 | > 10.2 µM
KYSE-50 (oesophagus, adherent) | 0.982 | > 2000 nM | 0.421 | 621 nM | 0.989 | > 100 nM | 0.821 | 263 nM | 0.879 | 8.93 µM
KYSE-70 (oesophagus, adherent) | 0.949 | > 2000 nM | 0.309 | 276 nM | 0.961 | > 100 nM | 0.901 | > 512 nM | 0.987 | > 10.2 µM

By IC50 is meant the dose at which the fit gives 50% viability; where the fit passes the top or lowest dose, that dose stands as a limit. For AUC the same curve is integrated over the 256-fold range of doses and scaled to a fraction; it is 1 without any effect and falls as sensitivity rises. For some assays here: Where the top dose is marked as inferred, it was derived from the fitted curves, not read from the paper.
